# PMC9911399, “Two distinct binding modes provide the RNA-binding protein RbFox with extraordinary sequence specificity”
# Positions count from the first letter of the chain named. Some of the results follow.
# T1: RBFOX1 RRM (Homo sapiens, UniProt Q9NWB1 109-208)
# T1 sequence: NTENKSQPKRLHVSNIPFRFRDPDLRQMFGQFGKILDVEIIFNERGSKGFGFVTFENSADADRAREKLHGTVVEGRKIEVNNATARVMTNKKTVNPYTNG
# B1: CGCAUGG (DNA:RNA)
# RNA: GGGAGACCGGAAUUCAGAUUGUCCCGCAUGGUUAAAUCCCGUCGUAGCCACCA
# DNA 1: CAATCTGAATTCCGGTCTCCC
# DNA 2: TGGTGGCTACGACGGGATT
# B2: AGGCGUC (DNA:RNA)
# RNA: B1 RNA with C25A, C27G, A28C, U29G, G30U, G31C
# DNA 1: CAATCTGAATTCCGGTCTCCC
# DNA 2: TGGTGGCTACGACGGGATT
# B3: AAACCGU (DNA:RNA)
# RNA: B1 RNA with C25A, G26A, C27A, A28C, U29C, G31U
# DNA 1: CAATCTGAATTCCGGTCTCCC
# DNA 2: TGGTGGCTACGACGGGATT
# B4: UCCGCGG (DNA:RNA)
# RNA: B1 RNA with C25U, G26C, A28G, U29C
# DNA 1: CAATCTGAATTCCGGTCTCCC
# DNA 2: TGGTGGCTACGACGGGATT
# B5: UGUUGGC (DNA:RNA)
# RNA: B1 RNA with C25U, C27U, A28U, U29G, G31C
# DNA 1: CAATCTGAATTCCGGTCTCCC
# DNA 2: TGGTGGCTACGACGGGATT
# B6: ACAAAAG (DNA:RNA)
# RNA: B1 RNA with C25A, G26C, C27A, U29A, G30A
# DNA 1: CAATCTGAATTCCGGTCTCCC
# DNA 2: TGGTGGCTACGACGGGATT
# B7: AUUGAGC (DNA:RNA)
# RNA: B1 RNA with C25A, G26U, C27U, A28G, U29A, G31C
# DNA 1: CAATCTGAATTCCGGTCTCCC
# DNA 2: TGGTGGCTACGACGGGATT
# B8: AGUGCGA (DNA:RNA)
# RNA: B1 RNA with C25A, C27U, A28G, U29C, G31A
# DNA 1: CAATCTGAATTCCGGTCTCCC
# DNA 2: TGGTGGCTACGACGGGATT
# B9: UACCACU (DNA:RNA)
# RNA: B1 RNA with C25U, G26A, A28C, U29A, G30C, G31U
# DNA 1: CAATCTGAATTCCGGTCTCCC
# DNA 2: TGGTGGCTACGACGGGATT
# B10: GCCCUUG (DNA:RNA)
# RNA: B1 RNA with C25G, G26C, A28C, G30U
# DNA 1: CAATCTGAATTCCGGTCTCCC
# DNA 2: TGGTGGCTACGACGGGATT
# B11: GUCCUAG (DNA:RNA)
# RNA: B1 RNA with C25G, G26U, A28C, G30A
# DNA 1: CAATCTGAATTCCGGTCTCCC
# DNA 2: TGGTGGCTACGACGGGATT
# B12: AGUAAAG (DNA:RNA)
# RNA: B1 RNA with C25A, C27U, U29A, G30A
# DNA 1: CAATCTGAATTCCGGTCTCCC
# DNA 2: TGGTGGCTACGACGGGATT
# B13: UAGGUAG (DNA:RNA)
# RNA: B1 RNA with C25U, G26A, C27G, A28G, G30A
# DNA 1: CAATCTGAATTCCGGTCTCCC
# DNA 2: TGGTGGCTACGACGGGATT
# B14: AGAAUCU (DNA:RNA)
# RNA: B1 RNA with C25A, C27A, G30C, G31U
# DNA 1: CAATCTGAATTCCGGTCTCCC
# DNA 2: TGGTGGCTACGACGGGATT
# B15: GGGGCUG (DNA:RNA)
# RNA: B1 RNA with C25G, C27G, A28G, U29C, G30U
# DNA 1: CAATCTGAATTCCGGTCTCCC
# DNA 2: TGGTGGCTACGACGGGATT
# B16: GCGGUGU (DNA:RNA)
# RNA: B1 RNA with C25G, G26C, C27G, A28G, G31U
# DNA 1: CAATCTGAATTCCGGTCTCCC
# DNA 2: TGGTGGCTACGACGGGATT
# B17: AAGCCCA (DNA:RNA)
# RNA: GGGAGACCGGAAUUCAGAUUGUCCAAGCCCAUUAAAUCCCGUCGUAGCCACCA
# DNA 1: CAATCTGAATTCCGGTCTCCC
# DNA 2: TGGTGGCTACGACGGGATT
# B18: GUCGCUU (DNA:RNA)
# RNA: B17 RNA with A25G, A26U, G27C, C28G, C30U, A31U
# DNA 1: CAATCTGAATTCCGGTCTCCC
# DNA 2: TGGTGGCTACGACGGGATT
# B19: CUCCAAC (DNA:RNA)
# RNA: B1 RNA with G26U, A28C, U29A, G30A, G31C
# DNA 1: CAATCTGAATTCCGGTCTCCC
# DNA 2: TGGTGGCTACGACGGGATT
# B20: UGCGUUC (DNA:RNA)
# RNA: B1 RNA with C25U, A28G, G30U, G31C
# DNA 1: CAATCTGAATTCCGGTCTCCC
# DNA 2: TGGTGGCTACGACGGGATT
# Target: T1, RBFOX1 RRM
# Test: EMSA; HiTS-Eq, 1 nM pool, 10 min; buffer printed only for the single-RNA assays: 10 mM Tris pH 7.5, 150 mM NaCl, 3.4 mM EDTA, 0.001% NP-40, 30 C
# Conditions: tags: His6 N-terminal (pET28a); label: 5' 32P
# Outline: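 Relative association constants, normalised to the cognate motif, were derived by comparing read counts of each RNA species with those of the control reaction. The RNA sequenced was the free fraction, separated by 8% native PAGE after a 10 min equilibration in 50 µL of 1 nM 5′-radiolabelled RNA (7 randomized nucleotides) with increasing concentrations of purified wild-type or mutant RbFox RRM.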
row,Binder,binding signal
1,B1,0.582 KA relative to UGCAUGU
2,B2,0.0131 KA relative to UGCAUGU
3,B3,0.00107 KA relative to UGCAUGU
4,B4,0.0131 KA relative to UGCAUGU
5,B5,0.0228 KA relative to UGCAUGU
6,B6,0.00155 KA relative to UGCAUGU
7,B7,0.0114 KA relative to UGCAUGU
8,B8,0.0129 KA relative to UGCAUGU
9,B9,0.00168 KA relative to UGCAUGU
10,B10,0.0146 KA relative to UGCAUGU
11,B11,0.0105 KA relative to UGCAUGU
12,B12,0.0111 KA relative to UGCAUGU
13,B13,0.0143 KA relative to UGCAUGU
14,B14,0.00546 KA relative to UGCAUGU
15,B15,0.0461 KA relative to UGCAUGU
16,B16,0.0224 KA relative to UGCAUGU
17,B17,0.00111 KA relative to UGCAUGU
18,B18,0.0147 KA relative to UGCAUGU
19,B19,0.00422 KA relative to UGCAUGU
20,B20,0.0184 KA relative to UGCAUGU
